Two compounds from article PMC9886550, “Molecular mechanism of topoisomerase poisoning by the peptide antibiotic albicidin” (Nature Catalysis, 2023) can be followed below.

The structures appear in SMILES notation. Where two headings read alike, the source gives them in different places. Further values from the same series stand in other lists.

The experiment addresses T1, WT E. coli gyrase (Escherichia coli, UniProt P0AES4+P0AES6).
T1 construct: alternative cryo-EM approach involving full-length E. coli gyrase; 10-His (cleaved yes); Twin-Strep (cleaved yes); made in house
Format: biochemical. As for the experimental part:
For DNA gyrase supercoiling assays to characterize gyrase mutants, 15 µl reactions were set up containing 250 ng of relaxed DNA, E. coli gyrase supercoiling buffer (35 mM Tris–Cl pH 7.5, 24 mM KCl, 4 mM MgCl2, 2 mM DTT, 1.8 mM spermidine, 1 mM ATP, 6.0% (w/v) glycerol, and 0.1 mg ml^−1 BSA), gyrase subunits and inhibitors. Concentrations of enzyme and inhibitor are stated in the figure legends. Inhibitors were diluted in the following way to reduce the chance of precipitation: stock compound in 100% DMSO was diluted to 5 mM in 100% DMSO. This compound solution was diluted to 1 mM by stepwise addition of 1 µl of 50% DMSO with thorough mixing via pipetting after each addition. All subsequent dilutions up to 100 µM were performed in the same way using H2O. After this point, compounds were stable and could be diluted in the normal way. Reactions were incubated at 37 °C for 30 min before stopping with 15 µl chloroform:isoamyl alcohol (24:1 v/v) and 15 µl of STEB (40% (w/v) sucrose, 100 mM Tris–Cl pH 8, 10 mM EDTA, 0.5 mg ml^−1 bromophenol blue).
Cleavage assays were set up in the same way as supercoiling assays with some modifications. The concentration of enzyme was increased 4-fold relative to the supercoiling assay and reactions were incubated for 1 h before addition of 0.2% SDS and proteinase K (0.2 mg ml^−1) and further incubation at 37 °C for 30 min to trap cleavage complexes. Reactions were stopped in the same way as supercoiling assays.
Results were visualized by agarose gel electrophoresis: 1% agarose Tris-acetate-EDTA (TAE) gels were run without ethidium bromide (supercoiling) or with 10 µg ml^−1 ethidium bromide (cleavage) at 8 V cm^−1.
DNA cleavage gels were analysed using densitometry (ImageJ). Experiments were carried out in triplicate and expressed as mean ± s.d. Curves were fitted using OriginPro 2021 (Origin Lab) according to a modified Hill equation:1 y=cI+(cF−cI)[…]/(k^n+x^n) where y is the percentage of cleaved DNA, cI is the initial cleavage, cF is the final cleavage, k is the CC50 (the concentration of inhibitor that results in cleavage of 50% of DNA), n is a slope factor and x is the inhibitor concentration.

As to `COc1c(NC(=O)c2ccc(NC(=O)c3ccc(NC(=O)[C@H](Cc4c[nH]nn4)NC(=O)c4ccc(NC(=O)c5ccc6cc(O)ccc6c5)cc4)cn3)c(OCCN)c2O)ccc(C(=O)O)c1O` [Albi-2], the “% cleaved DNA Average” value came out at 4.251% (Albi-2 0.001 µM); 4.814% (Albi-2 0.005 µM); 6.4087% (Albi-2 0.01 µM); 21.2457% (Albi-2 0.05 µM); 31.0834% (Albi-2 0.1 µM); 69.2374% (Albi-2 0.5 µM). The “% cleaved DNA Average” value runs as follows: (Albi-2 1 µM) 71.7749%; (Albi-2 5 µM) 77.8853%; (Albi-2 10 µM) 77.3078%.
Consider `CC(C)Oc1c(NC(=O)c2ccc(NC(=O)[C@H](Cc3c[nH]nn3)NC(=O)c3ccc(NC(=O)c4ccc(C#N)cc4)cn3)cn2)ccc(C(=O)Nc2ccc(C(=O)O)cc2)c1O` [Albi-1], for which the “% cleaved DNA Average” value reads like this: (0.00025 µM, average of 3) 5.528%; (0.0005 µM, average of 3) 6.752%; (0.001 µM, average of 3) 9.419%; (0.005 µM, average of 3) 35.7477%; (0.01 µM, average of 3) 36.7121%; (0.05 µM, average of 3) 67.2109%. The “% cleaved DNA Average” value (0.1 µM, average of 3) worked out at 69.4506%; the “% cleaved DNA Average” value (0.5 µM, average of 3) was determined as 72.578%; the “% cleaved DNA Average” value (1 µM, average of 3) is 65.4906%.
